Data from the RNAGym collection of RNA variant scans (doi:10.7554/elife.90254).
Read counts are not given, so values of variants with three or more changes are uncertain.

B1: LINE1-mini (parent)
chain: GGCAGAGCUCAACACAGCGUGGCAAAGUGGCUGUGGCUAGACUGCC

Variants of: B1
Test: self-cleavage, relative activity (ratio to wild type); higher = more cleavage; in vitro, sequencing; the parent is a self-cleaving ribozyme

Variant	self-cleavage
G5C A25C C45U	0.09
G5C A25C U28G G40U	0.01
G5C A25U C42G G44U	0.01
G5C A25U G33C	0.03
G5C A25U G36A	0.04
G5C A25U G36A G44C	0.08
G5C A25U G40U	0.13
G5C A26C C31G A41U C46G	0.02
G5C A26C U38A	0.07
G5C A26G G29A G36U	0.01
G5C A26U C37G	0.06
G5C A26U G33A	0.07
G5C A41C C42U C45A	0.06
G5C A41U C46A	0.03
G5C C8A A12C	0.13
G5C C8A A14G G29A A39C G40A	0.13
G5C C8A A14G G29C U34A G44C	0.24
G5C C8A A14U	0.03
G5C C8A A24U G29U	0.34
G5C C8A A39U	0.12
G5C C8A C10A A12U	0.03

Variant	self-cleavage
G5C C8A C10A U20C A41U	0.06
G5C C8A C15A G19C	0.14
G5C C8A C15U G19A	0.43
G5C C8A C15U U38C A39U	0.07
G5C C8A C31A G33U A39U	0.03
G5C C8A U9G C13A A26U C46U	0.21
G5C C8A U38A	0.52
G5C C8G A12G C37G U38G	0.06
G5C C8G A14C G22U A26G A39U C42A	0.02
G5C C8G A25C U32G	0.04
G5C C8G C15U A16U G19A G36A A41U	0.05
G5C C8G C18G C31G	0
G5C C8G C23U G44C C45U	0
G5C C8G G19C	0.05
G5C C8G G29U	0.06
G5C C8G G30C G35C G44A	0.01
G5C C8G G30U G35U G44C	0.13
G5C C8G U9C U38C	0.02
G5C C8G U9G A16G A26C G33U C37U	0.02
G5C C8U A14G A41U	0.08
G5C C8U A14G G19U G40C	0.02

Variant	self-cleavage
G5C C8U A16U U20A G33A	0.03
G5C C8U A24G G36C	0.05
G5C C8U C10A	0.04
G5C C8U C10A C31U	0.04
G5C C8U C13A C15U G19U C46G	0.1
G5C C8U C42G G44U	0.1
G5C C8U G21U G35U	0.11
G5C C8U U9A G36U	0.05
G5C C8U U20G G29C	0.04
G5C C10A A11G G27A C42A C46A	0
G5C C10A A14G G21A C31U	0.03
G5C C10A A24C A39C G44U	0.01
G5C C10A C15G	0.03
G5C C10A C18G	0.03
G5C C10A C31U	0.01
G5C C10A G19U A26G G27U	0.05
G5C C10A G21U A24C	0.02
G5C C10A G22U C23A	0.01
G5C C10A G30U U32C	0.04
G5C C10A U20A C23A A41G	0
G5C C10G A14U	0.03

Variant	self-cleavage
G5C C10G C13A C15U C31U U32A	0.02
G5C C10G C13G U20C C31U	0.03
G5C C10G C23U	0.02
G5C C10G G17A A26C G30U	0.03
G5C C10G G29C U32A G33U	0.02
G5C C10G G40U	0.02
G5C C10G G44C	0.02
G5C C10U A11G U20C A41U U43A C45G	0
G5C C10U A11U U28G G29A	0.04
G5C C10U A16C U20A G36C C46U	0.02
G5C C10U C13A G35C G36C	0.01
G5C C10U G29A A41U C42A	0.03
G5C C10U U20G G22C U28C C42A	0.01
G5C C13A A16C A24G	0.02
G5C C13A A16U C18G G21U G33A	0.01
G5C C13A A16U G33U	0.15
G5C C13A A39C	0.03
G5C C13A C31G U43C G44A	0.01
G5C C13A C31U U34G C37U	0.06
G5C C13A C42U	0.04
G5C C13A C45G	0.01
